# Assay results: the supplement of paper PMC8728848
# Some of the results follow.
# B1: Cohesin-hDECTIN-1 (Homo sapiens) (protein)
# chain: LDITSHHHHHHDDLDAVRIKVDTVNAKPGDTVRIPVRFSGIPSKGIANCDFVYSYDPNVLEIIEIEPGDIIVDPNPDKSFDTAVYPDRKIIVFLFAEDSGTGAYAITKDGVFATIVAKVKEGAPNGLSVIKFVEVGGFANNDLVEQKTQFFDGGVNVGDTTEPATPTTPVTTPTTTDDLDAASSSPCPPNWIIYEKSCYLFSMSLNSWDGSKRQCWQLGSNLLKIDSSNELGFIVKQVSSQPDNSFWIGLSRPQTEVPWLWEDGSTFSSNLFQIRTTATQENPSPNCVWIHVSVIYDQLCSVPSYSICEKKFM
# How the values were obtained:
# Experiment in all cases: glycan array binding signal (z-score within array); higher = stronger binding
# Details in all cases: glycan notation: IUPAC condensed, linker removed
# [1] = target: Fuc(a1-3)[Gal3S(b1-4)]GlcNAc6S
# How it was run: (§1)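 From the Consortium for Functional Glycomics database, 3228 arrays were curated, keeping only those whose protein sequence was available. Binding is given as a within-array Z-score averaged across arrays sharing a protein sequence and across linkers. Negative Z-scores can be read as non-binding.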
# [2] = target: Fuc(a1-3)[GalNAc(b1-4)]GlcNAc
# How it was run: as §1
# [3] = target: Fuc(a1-3)[GalNAc(b1-4)]GlcNAc6S
# How it was run: as §1
# Fuc(a1-4)GlcNAc = target: Fuc(a1-4)GlcNAc
# How it was run: as §1
# Fuc(b1-3)GlcNAc = target: Fuc(b1-3)GlcNAc
# How it was run: as §1
# Gal(a1-2)Gal = target: Gal(a1-2)Gal
# How it was run: as §1
# Gal(a1-3)Gal = target: Gal(a1-3)Gal
# How it was run: as §1
# Gal(a1-3)Gal(b1-3)GlcNAc = target: Gal(a1-3)Gal(b1-3)GlcNAc
# How it was run: as §1
# [4] = target: Gal(a1-3)Gal(b1-3)GlcNAc(b1-2)Man
# How it was run: as §1
# [5] = target: Gal(a1-3)Gal(b1-3)GlcNAc(b1-2)Man(a1-3)[Gal(a1-3)Gal(b1-3)GlcNAc(b1-2)Man(a1-6)]Man(b1-4)GlcNAc(b1-4)GlcNAc
# How it was run: as §1
# [6] = target: Gal(a1-3)Gal(b1-3)GlcNAc(b1-3)GalNAc
# How it was run: as §1
# [7] = target: Gal(a1-3)Gal(b1-3)GlcNAc(b1-6)GalNAc
# How it was run: as §1
# [8] = target: Gal(a1-3)Gal(b1-3)[Fuc(a1-4)]GlcNAc(b1-2)Man(a1-3)[Gal(a1-3)Gal(b1-3)[Fuc(a1-4)]GlcNAc(b1-2)Man(a1-6)]Man(b1-4)GlcNAc(b1-4)GlcNAc
# How it was run: as §1
# Gal(a1-3)Gal(b1-4)Glc = target: Gal(a1-3)Gal(b1-4)Glc
# How it was run: as §1
# Gal(a1-3)Gal(b1-4)GlcNAc = target: Gal(a1-3)Gal(b1-4)GlcNAc
# How it was run: as §1
# [9] = target: Gal(a1-3)Gal(b1-4)GlcNAc(b1-2)Man
# How it was run: as §1
# [10] = target: Gal(a1-3)Gal(b1-4)GlcNAc(b1-2)Man(a1-3)[Gal(a1-3)Gal(b1-4)GlcNAc(b1-2)Man(a1-6)]Man(b1-4)GlcNAc(b1-4)GlcNAc
# How it was run: as §1
# [11] = target: Gal(a1-3)Gal(b1-4)GlcNAc(b1-3)GalNAc
# How it was run: as §1
# [12] = target: Gal(a1-3)Gal(b1-4)GlcNAc(b1-6)GalNAc
# How it was run: as §1
# [13] = target: Gal(a1-3)Gal(b1-4)[Fuc(a1-3)]GlcNAc
# How it was run: as §1
# [14] = target: Gal(a1-3)Gal(b1-4)[Fuc(a1-3)]GlcNAc(b1-2)Man(a1-3)[Gal(a1-3)Gal(b1-4)[Fuc(a1-3)]GlcNAc(b1-2)Man(a1-6)]Man(b1-4)GlcNAc(b1-4)GlcNAc
# How it was run: as §1
# Gal(a1-3)GalNAc = target: Gal(a1-3)GalNAc
# How it was run: as §1
# [15] = target: Gal(a1-3)[Gal(a1-4)]Gal(b1-4)GlcNAc
# How it was run: as §1
# [16] = target: Gal(a1-4)Gal(b1-3)GlcNAc(b1-2)Man(a1-3)[Gal(a1-4)Gal(b1-3)GlcNAc(b1-2)Man(a1-6)]Man(b1-4)GlcNAc(b1-4)GlcNAc
# How it was run: as §1
# Gal(a1-4)Gal(b1-4)Glc = target: Gal(a1-4)Gal(b1-4)Glc
# How it was run: as §1
# Gal(a1-4)Gal(b1-4)GlcNAc = target: Gal(a1-4)Gal(b1-4)GlcNAc
# How it was run: as §1
# [17] = target: Gal(a1-4)Gal(b1-4)GlcNAc(b1-2)Man(a1-3)[Gal(a1-4)Gal(b1-4)GlcNAc(b1-2)Man(a1-6)]Man(b1-4)GlcNAc(b1-4)GlcNAc
# How it was run: as §1
# [18] = target: Gal(a1-4)Gal(b1-4)GlcNAc(b1-3)Gal(b1-4)Glc
# How it was run: as §1
# Gal(a1-4)GlcNAc = target: Gal(a1-4)GlcNAc
# How it was run: as §1
# Gal(a1-6)Glc = target: Gal(a1-6)Glc
# How it was run: as §1
# Gal(b1-2)Gal = target: Gal(b1-2)Gal
# How it was run: as §1
# Gal(b1-3)Gal = target: Gal(b1-3)Gal
# How it was run: as §1
# Gal(b1-3)Gal(b1-4)GlcNAc = target: Gal(b1-3)Gal(b1-4)GlcNAc
# How it was run: as §1
# Gal(b1-3)GalNAc = target: Gal(b1-3)GalNAc
# How it was run: as §1
# [19] = target: Gal(b1-3)GalNAc(a1-3)[Fuc(a1-2)]Gal(b1-4)Glc
# How it was run: as §1
# [20] = target: Gal(b1-3)GalNAc(a1-3)[Fuc(a1-2)]Gal(b1-4)GlcNAc
# How it was run: as §1
# Gal(b1-3)GalNAc(b1-3)Gal = target: Gal(b1-3)GalNAc(b1-3)Gal
# How it was run: as §1
binder,measurement,setting,value
B1,glycan array binding signal (z-score),[1],-0.218
same,glycan array binding signal (z-score),[2],2.03
same,glycan array binding signal (z-score),[3],1.03
same,glycan array binding signal (z-score),Fuc(a1-4)GlcNAc,-0.25
same,glycan array binding signal (z-score),Fuc(b1-3)GlcNAc,-0.288
same,glycan array binding signal (z-score),Gal(a1-2)Gal,-0.199
same,glycan array binding signal (z-score),Gal(a1-3)Gal,-0.419
same,glycan array binding signal (z-score),Gal(a1-3)Gal(b1-3)GlcNAc,4.04
same,glycan array binding signal (z-score),[4],-0.585
same,glycan array binding signal (z-score),[5],0.993
same,glycan array binding signal (z-score),[6],-0.327
same,glycan array binding signal (z-score),[7],7.58
same,glycan array binding signal (z-score),[8],-0.29
same,glycan array binding signal (z-score),Gal(a1-3)Gal(b1-4)Glc,-0.437
same,glycan array binding signal (z-score),Gal(a1-3)Gal(b1-4)GlcNAc,-0.267
same,glycan array binding signal (z-score),[9],0.129
same,glycan array binding signal (z-score),[10],0.386
same,glycan array binding signal (z-score),[11],-0.373
same,glycan array binding signal (z-score),[12],5.86
same,glycan array binding signal (z-score),[13],-0.334
same,glycan array binding signal (z-score),[14],0.021
same,glycan array binding signal (z-score),Gal(a1-3)GalNAc,-0.531
same,glycan array binding signal (z-score),[15],-0.425
same,glycan array binding signal (z-score),[16],-0.209
same,glycan array binding signal (z-score),Gal(a1-4)Gal(b1-4)Glc,-0.217
same,glycan array binding signal (z-score),Gal(a1-4)Gal(b1-4)GlcNAc,-0.392
same,glycan array binding signal (z-score),[17],-0.363
same,glycan array binding signal (z-score),[18],-0.344
same,glycan array binding signal (z-score),Gal(a1-4)GlcNAc,0.417
same,glycan array binding signal (z-score),Gal(a1-6)Glc,0.922
same,glycan array binding signal (z-score),Gal(b1-2)Gal,0.385
same,glycan array binding signal (z-score),Gal(b1-3)Gal,-0.474
same,glycan array binding signal (z-score),Gal(b1-3)Gal(b1-4)GlcNAc,-0.493
same,glycan array binding signal (z-score),Gal(b1-3)GalNAc,-0.336
same,glycan array binding signal (z-score),[19],-0.171
same,glycan array binding signal (z-score),[20],-0.395
same,glycan array binding signal (z-score),Gal(b1-3)GalNAc(b1-3)Gal,-0.475
